Assay results reported in PubChem BioAssay (Tox21).
Inconclusive results, whose numbers are uncertain, are shown with a selection of clear calls. For some assays here: Potencies of inconclusive entries are left out as doubtful fits. Activity calls are given as the source filed them. Unless noted, calls follow the shape of the dose curve; as a rule, active = well fitted curve in the direction sought with a large enough effect in the repeat runs; inconclusive = weak or mixed curves; inactive = no such curve, though single readings can be large; an effect the other way counts as inactive or inconclusive.

Assays:
[1] = qHTS assay to identify small molecule antagonists of the glucocorticoid receptor (GR) signaling pathway - cell viability counter screen (AID 720693); conditions: GR-bla HeLa viability, CellTiter-Glo luminescence, 18 h, with 5 nM dexamethasone present; viability change, negative = cytotoxic: at 58.5 µM (top of the series); also: potency is read from the fitted curve at half-maximal effect; nearly all actives have a fitted effect of over 55% in size
[2] = molecular target: Androgen receptor (Homo sapiens) (UniProt P10275); assay: qHTS assay to identify small molecule antagonists of the androgen receptor (AR) signaling pathway using the MDA cell line (AID 743042; also: % is scaled to controls: 0 for no effect and ±100 for the full control effect; nearly all actives have a fitted effect of over 55% in size)
Outline: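 MDA-kb2 cells (human breast carcinoma, stably carrying an MMTV-luciferase reporter responsive to AR and GR) were plated at 3,000 cells/well and preincubated 5 hr at 37C, then given compound plus R1881 agonist for 16 h. ONE-Glo luminescence was read.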

[3] = qHTS assay to identify small molecule antagonists of the thyroid receptor (TR) signaling pathway - cell viability counter screen (AID 743064); conditions: GH3.TRE-Luc viability, CellTiter-Fluor, 24 h; activity change, negative = cytotoxic: at 70.3 µM (top of the series) unless noted; also: nearly all actives have a fitted effect of over 50% in size; also: potency is read from the fitted curve at half-maximal effect; as to activity change, negative = cytotoxic: % is scaled to controls: 0 for no effect and ±100 for the full control effect
Outline: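 Plate GH3.TRE-Luc cells; incubate 4 h at 37 °C; add compound, then T3 to 1 nM final; incubate 23.5 h; add CellTiter-Fluor; incubate 30 min at 37 °C, 5% CO2; read fluorescence.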

[4] = test system: thyroid hormone receptor (rat, GH3 cells); assay: qHTS assay to identify small molecule agonists of the thyroid receptor (TR) signaling pathway (AID 743066; calls by dose curve; also: % is scaled to controls: 0 for no effect and ±100 for the full control effect); conditions: GH3.TRE-Luc cells, TR agonist luciferase, 24 h; activation: at 83.9 µM (top of the series) unless noted
[5] = qHTS assay to identify small molecule antagonists of the estrogen receptor alpha (ER-alpha) signaling pathway - cell viability counter screen (AID 743074; calls by dose curve;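 also: HEK293 cells carrying ER-alpha-UAS-bla reporter stimulated with 17beta-estradiol; nearly all actives have a fitted effect of over 45% in size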; also: potency is read from the fitted curve at half-maximal effect)
[6] = molecular target: Vitamin D3 receptor (Homo sapiens) (UniProt P11473); assay: qHTS assay to identify small molecule antagonists of the vitamin D receptor (VDR) signaling pathway (AID 743223; active = well fitted inhibition curve with a large enough effect in the signal ratio in the repeat runs, not every such curve was filed as active; inconclusive = weak or mixed curves, or effect the other way; inactive = no such curve, though single readings can be large or run the other way; the % refers to the signal ratio; also: potency is read from the fitted curve at half-maximal effect); conditions: VDR-UAS-bla HEK293T, beta-lactamase FRET ratio, 16 h; activity change, negative = inhibition: at 61 µM (top of the series) unless noted
Outline: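 Fluorescence from LiveBLAzer B/G FRET substrate, read after 2 h at room temperature, reflects beta-lactamase reporter activity in VDR-bla cells treated 16 h at 37C with compounds and agonist 1alpha,25-dihydroxyvitamin D3 (3 nM final).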

[7] = molecular target: Glucocorticoid receptor (Homo sapiens) (UniProt P04150); assay: qHTS assay to identify small molecule antagonists of the glucocorticoid receptor (GR) signaling pathway (AID 720692; active = well fitted inhibition curve with a large enough effect in the signal ratio in the repeat runs, not every such curve was filed as active; inconclusive = weak or mixed curves, or effect the other way; inactive = no such curve, though single readings can be large or run the other way; the % refers to the signal ratio; also: potency is read from the fitted curve at half-maximal effect); conditions: GR-bla HeLa, beta-lactamase FRET ratio, dexamethasone-stimulated, 18 h; activity change, negative = inhibition: at 58.5 µM (top of the series) unless noted
Outline: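 GR-bla HeLa cells (beta-lactamase reporter under glucocorticoid response element) were pre-plated 4 h at 37 C, treated with compounds plus 5 nM dexamethasone (final) for 18 h, then read by LiveBLAzer B/G FRET fluorescence after 2 h.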

[8] = qHTS assay for identifying genotoxic compounds that show differential cytotoxicity against isogenic chicken DT40 cell lines with known DNA damage response pathways - Rev3 mutant cell line (AID 743014); conditions: chicken DT40 Rev3-/- viability, CellTiter-Glo, 40 h; activity, negative = cytotoxicity: at 68.4 µM (top of the series) unless noted; also: potency is read from the fitted curve at half-maximal effect; nearly all actives have a fitted effect of over 55% in size
[9] = qHTS assay to identify small molecule antagonists of the androgen receptor (AR) signaling pathway using the MDA cell line - cell viability counter screen (AID 743041; also: nearly all actives have a fitted effect of over 45% in size; also: potency is read from the fitted curve at half-maximal effect); conditions: MDA-kb2 viability, CellTiter-Fluor, 16 h, cells co-treated with R1881 androgen agonist; viability change, negative = cytotoxic: at 70.3 µM (top of the series)
Outline: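 Viability counter screen run alongside the AR antagonist reporter: cells seeded 5 h before compound, R1881 added, 16 h incubation at 37C without CO2, fluorescent CellTiter-Fluor signal quantified.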

[10] = qHTS assay for identifying genotoxic compounds that show differential cytotoxicity against isogenic chicken DT40 cell lines with known DNA damage response pathways - wild type cell line (AID 743012); conditions: DT40 wild type chicken cells viability, CellTiter-Glo, 40 h; activity change, negative = cytotoxicity: at 68.4 µM (top of the series) unless noted; also: nearly all actives have a fitted effect of over 60% in size; also: potency is read from the fitted curve at half-maximal effect
Outline: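 Parental DNA repair-proficient DT40 cells, 300 per well, were pre-incubated ~0.5 h at 37 C/5% CO2, pin-dosed with compounds in DMSO, then incubated 40 h. Viability was read as CellTiter-Glo luminescence after 30 min at room temperature.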

[11] = qHTS assay to identify small molecule antagonists of the androgen receptor (AR) signaling pathway - cell viability counter screen (AID 743033; also: % is scaled to controls: 0 for no effect and ±100 for the full control effect; nearly all actives have a fitted effect of over 45% in size); conditions: AR-bla HEK293 viability, CellTiter-Glo luminescence, 16 h; activity change, negative = cytotoxicity: at 58.5 µM (top of the series) unless noted
[12] = molecular target: Androgen receptor (Homo sapiens) (UniProt P10275); assay: qHTS assay to identify small molecule antagonists of the androgen receptor (AR) signaling pathway (AID 743035; active = well fitted inhibition curve with a large enough effect in the signal ratio in the repeat runs, not every such curve was filed as active; inconclusive = weak or mixed curves, or effect the other way; inactive = no such curve, though single readings can be large or run the other way; the % refers to the signal ratio; also: % is scaled to controls: 0 for no effect and ±100 for the full control effect); conditions: HEK293 AR-UAS-bla, R1881-stimulated, beta-lactamase FRET, 16 h; activity change, negative = inhibition: at 58.5 µM (top of the series) unless noted
Outline: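 HEK293 cells stably carrying a UAS-driven beta-lactamase reporter (AR-UAS-bla GripTite) were plated for 4 h at 37C, then given compound and the agonist R1881 and incubated 16 h. Reporter activity was read by LiveBLAzer B/G FRET fluorescence after 2 h at room temperature.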

[13] = molecular target: Aromatase (Homo sapiens) (UniProt P11511); assay: qHTS assay to identify aromatase inhibitors (AID 743083); also: % is scaled to controls: 0 for no effect and ±100 for the full control effect; nearly all actives have a fitted effect of over 55% in size
[14] = molecular target: Peroxisome proliferator-activated receptor gamma (Homo sapiens) (UniProt P37231); assay: qHTS assay to identify small molecule agonists of the peroxisome proliferator-activated receptor gamma (PPARg) signaling pathway (AID 743094; active = well fitted activation curve with a large enough effect in the signal ratio in the repeat runs, not every such curve was filed as active; inconclusive = weak or mixed curves, or effect the other way; inactive = no such curve, though single readings can be large or run the other way; the % refers to the signal ratio; also: % is scaled to controls: 0 for no effect and ±100 for the full control effect); conditions: HEK293H PPARg-UAS-bla, beta-lactamase FRET ratio, 17 h; activation: at 57 µM (top of the series) unless noted
Outline: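 GeneBLAzer PPARg UAS-bla HEK293H cells carrying a stably integrated beta-lactamase reporter were pre-incubated 5 h at 37C, then exposed to compounds in DMSO for 17 h at 37C; LiveBLAzer B/G FRET substrate was added for 1 h at room temperature and fluorescence read.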

[15] = qHTS assay to identify small molecule antagonists of the estrogen receptor alpha (ER-alpha) signaling pathway using the BG1 cell line (AID 743080; calls by dose curve;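 also: BG1 cells stimulated with 17beta-estradiol alongside compound; nearly all actives have a fitted effect of over 25% in size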; also: potency is read from the fitted curve at half-maximal effect); conditions: BG1Luc4E2 ERE-luciferase antagonist mode, luminescence; activity change, negative = inhibition: at 70.3 µM (top of the series) unless noted
Outline: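 Seeding, 24 h rest, compound transfer from DMSO, 17beta-estradiol addition, 21.5 h incubation, CellTiter-Fluor (30 min, 37 C), then ONE-Glo (30 min, room temperature): this sequence was run on BG1-Luc-4E2 reporter cells.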

[16] = qHTS assay to identify small molecule antagonists of the estrogen receptor alpha (ER-alpha) signaling pathway using the BG1 cell line - cell viability counter screen (AID 743081); conditions: BG1Luc4E2 viability, CellTiter-Fluor, 22 h; activity change, negative = cytotoxicity: at 70.3 µM (top of the series) unless noted;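 also: compound given together with 17beta-estradiol as the ER stimulus; potency is read from the fitted curve at half-maximal effect; nearly all actives have a fitted effect of over 45% in size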
[17] = molecular target: Estrogen receptor (Homo sapiens) (UniProt P03372); assay: qHTS assay to identify small molecule antagonists of the estrogen receptor alpha (ER-alpha) signaling pathway (AID 743069; active = well fitted curve in the direction sought with a large enough effect in the signal ratio in the repeat runs, not every such curve was filed as active; inconclusive = weak or mixed curves, or effect the other way; inactive = no such curve, though single readings can be large or run the other way; the % refers to the signal ratio; also: potency is read from the fitted curve at half-maximal effect); conditions: HEK293 ER-alpha-UAS-bla, beta-lactamase ratio, antagonist mode; activity, negative = inhibition: at 69.4 µM (top of the series) unless noted
Outline: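 Estradiol-stimulated ER-alpha-UAS-bla HEK293 cells, 18 hr compound exposure at 37C. LiveBLAzer B/G substrate, 2 hr RT, fluorescence read.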

[18] = molecular target: Estrogen receptor (Homo sapiens) (UniProt P03372); assay: qHTS assay to identify small molecule agonists of the estrogen receptor alpha (ER-alpha) signaling pathway (AID 743075; calls by dose curve; also: potency is read from the fitted curve at half-maximal effect); conditions: HEK293 ER-alpha-UAS-bla, beta-lactamase FRET ratio, 18 h; activation: at 70.1 µM (top of the series)
[19] = molecular target: Estrogen receptor (Homo sapiens) (UniProt P03372); assay: qHTS assay to identify small molecule agonists of the estrogen receptor alpha (ER-alpha) signaling pathway using the BG1 cell line (AID 743079); conditions: BG1Luc4E2 cells, ERE-luciferase agonist, 22 h; activation: at 70.3 µM (top of the series) unless noted; also: nearly all actives have a fitted effect of over 20% in size; also: potency is read from the fitted curve at half-maximal effect
[20] = qHTS assay to identify aromatase inhibitors - cell viability counter screen (AID 743084); conditions: MCF-7 aro ERE viability, CellTiter-Fluor, 24 h; activity change, negative = cytotoxicity: at 70.3 µM (top of the series) unless noted
[21] = qHTS assay for identifying genotoxic compounds that show differential cytotoxicity against isogenic chicken DT40 cell lines with known DNA damage response pathways - Rad54/Ku70 mutant cell line (AID 743015); conditions: DT40 Rad54/Ku70 mutant viability, CellTiter-Glo, 40 h; activity change, negative = cytotoxicity: at 66.8 µM (top of the series) unless noted; also: potency is read from the fitted curve at half-maximal effect; nearly all actives have a fitted effect of over 60% in size
[22] = qHTS assay to identify small molecule antagonists of the thyroid receptor (TR) signaling pathway (AID 743065)
Outline: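 GH3.TRE-Luc rat pituitary cells carrying two TR response elements driving luciferase were plated for 4 h, given compound plus 1 nM T3 (final), and incubated 23.5 h at 37 C. ONE-Glo luminescence measured reporter inhibition; CellTiter-Fluor fluorescence tracked cytotoxicity.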

[23] = molecular target: Aryl hydrocarbon receptor (Homo sapiens) (UniProt P35869); assay: qHTS assay to identify small molecule that activate the aryl hydrocarbon receptor (AhR) signaling pathway (AID 743085);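 also: HG2L7.5c1 human HepG2 liver cells with stably integrated DRE-driven firefly reporter; % is scaled to controls: 0 for no effect and ±100 for the full control effect; nearly all actives have a fitted effect of over 15% in size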
Outline: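 Steps: seed HepG2-AhR-luc cells; allow 5 h at 37C; pin-transfer test compound or vehicle; incubate 24 h at 37C; add viability dye (30 min, 37C) and read fluorescence; add luciferase substrate (30 min, RT) and read luminescence.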
Tags tell the direction and shape of the fitted curve or compound fluorescence and quenching.

UniProt P37231, sequence (P37231 whole entry, looked up): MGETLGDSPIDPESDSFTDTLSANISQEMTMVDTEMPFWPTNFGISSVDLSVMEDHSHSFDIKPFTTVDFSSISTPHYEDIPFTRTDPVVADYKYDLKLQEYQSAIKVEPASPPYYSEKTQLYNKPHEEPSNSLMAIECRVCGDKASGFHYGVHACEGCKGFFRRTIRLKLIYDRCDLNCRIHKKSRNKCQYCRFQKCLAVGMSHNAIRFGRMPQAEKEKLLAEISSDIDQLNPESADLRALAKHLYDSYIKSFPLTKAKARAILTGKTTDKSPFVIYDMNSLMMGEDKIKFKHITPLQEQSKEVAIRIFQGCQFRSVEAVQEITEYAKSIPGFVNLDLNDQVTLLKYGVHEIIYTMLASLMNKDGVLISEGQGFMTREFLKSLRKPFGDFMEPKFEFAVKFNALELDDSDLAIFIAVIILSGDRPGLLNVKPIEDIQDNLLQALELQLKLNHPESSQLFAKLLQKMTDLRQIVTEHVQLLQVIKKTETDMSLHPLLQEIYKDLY
UniProt P10275, sequence (P10275 whole entry, looked up): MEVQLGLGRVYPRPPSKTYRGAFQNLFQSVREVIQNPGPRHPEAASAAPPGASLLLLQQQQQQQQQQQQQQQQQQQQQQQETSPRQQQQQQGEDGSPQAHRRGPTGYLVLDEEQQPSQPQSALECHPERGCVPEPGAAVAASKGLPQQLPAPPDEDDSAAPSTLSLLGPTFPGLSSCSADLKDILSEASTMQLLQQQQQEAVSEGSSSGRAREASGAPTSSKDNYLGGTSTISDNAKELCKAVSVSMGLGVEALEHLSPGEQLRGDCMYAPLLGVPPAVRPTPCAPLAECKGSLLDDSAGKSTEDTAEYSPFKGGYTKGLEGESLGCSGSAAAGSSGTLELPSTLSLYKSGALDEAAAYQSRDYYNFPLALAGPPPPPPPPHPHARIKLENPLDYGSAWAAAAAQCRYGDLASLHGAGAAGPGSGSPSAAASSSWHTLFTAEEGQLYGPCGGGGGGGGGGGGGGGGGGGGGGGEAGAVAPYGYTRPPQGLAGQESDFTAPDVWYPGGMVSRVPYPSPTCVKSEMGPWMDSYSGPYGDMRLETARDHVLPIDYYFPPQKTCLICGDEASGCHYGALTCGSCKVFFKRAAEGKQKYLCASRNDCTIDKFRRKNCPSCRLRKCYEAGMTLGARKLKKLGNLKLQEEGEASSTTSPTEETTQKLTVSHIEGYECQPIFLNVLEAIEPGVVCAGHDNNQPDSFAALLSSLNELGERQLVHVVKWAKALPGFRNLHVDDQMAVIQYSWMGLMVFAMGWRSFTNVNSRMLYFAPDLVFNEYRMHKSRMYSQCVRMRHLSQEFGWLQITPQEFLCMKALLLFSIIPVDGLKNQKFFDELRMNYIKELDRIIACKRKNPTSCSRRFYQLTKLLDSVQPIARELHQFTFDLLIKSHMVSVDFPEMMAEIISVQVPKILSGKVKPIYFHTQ
UniProt P04150, sequence (P04150 whole entry, looked up): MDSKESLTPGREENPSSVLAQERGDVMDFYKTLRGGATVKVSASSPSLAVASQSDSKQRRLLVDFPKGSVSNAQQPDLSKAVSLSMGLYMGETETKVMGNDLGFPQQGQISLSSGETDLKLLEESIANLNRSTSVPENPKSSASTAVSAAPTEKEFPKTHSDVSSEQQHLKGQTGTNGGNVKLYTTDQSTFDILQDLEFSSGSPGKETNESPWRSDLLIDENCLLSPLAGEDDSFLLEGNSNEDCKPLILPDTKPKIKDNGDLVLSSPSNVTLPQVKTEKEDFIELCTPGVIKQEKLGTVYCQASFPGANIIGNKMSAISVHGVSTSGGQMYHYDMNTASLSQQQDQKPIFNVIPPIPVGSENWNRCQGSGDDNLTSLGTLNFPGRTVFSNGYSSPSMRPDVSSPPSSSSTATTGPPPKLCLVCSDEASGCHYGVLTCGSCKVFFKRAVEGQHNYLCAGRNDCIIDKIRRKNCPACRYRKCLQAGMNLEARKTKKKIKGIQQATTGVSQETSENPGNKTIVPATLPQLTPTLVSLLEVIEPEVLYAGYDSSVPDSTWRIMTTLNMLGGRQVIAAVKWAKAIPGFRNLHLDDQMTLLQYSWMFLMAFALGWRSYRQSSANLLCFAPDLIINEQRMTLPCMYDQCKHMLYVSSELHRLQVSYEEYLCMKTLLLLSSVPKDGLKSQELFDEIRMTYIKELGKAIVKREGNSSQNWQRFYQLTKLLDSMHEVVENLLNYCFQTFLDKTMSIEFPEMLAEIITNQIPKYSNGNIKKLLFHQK
UniProt P03372, sequence (P03372 whole entry, looked up): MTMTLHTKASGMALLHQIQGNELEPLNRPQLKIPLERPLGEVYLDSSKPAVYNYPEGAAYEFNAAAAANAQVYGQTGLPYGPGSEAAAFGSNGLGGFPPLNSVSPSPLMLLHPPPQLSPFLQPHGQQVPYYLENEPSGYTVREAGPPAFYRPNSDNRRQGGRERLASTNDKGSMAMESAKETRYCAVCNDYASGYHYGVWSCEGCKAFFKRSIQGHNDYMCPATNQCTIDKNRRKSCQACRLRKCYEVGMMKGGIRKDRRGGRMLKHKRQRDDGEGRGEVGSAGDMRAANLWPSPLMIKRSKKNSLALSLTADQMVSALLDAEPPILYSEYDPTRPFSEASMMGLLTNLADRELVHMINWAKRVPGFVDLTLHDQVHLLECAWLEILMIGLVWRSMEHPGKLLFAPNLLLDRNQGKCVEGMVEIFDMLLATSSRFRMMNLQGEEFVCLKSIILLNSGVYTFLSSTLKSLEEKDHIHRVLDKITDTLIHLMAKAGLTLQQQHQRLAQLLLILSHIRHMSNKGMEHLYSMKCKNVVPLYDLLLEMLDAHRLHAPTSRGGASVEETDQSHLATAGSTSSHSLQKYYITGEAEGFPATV
UniProt P11511, sequence (P11511 whole entry, looked up): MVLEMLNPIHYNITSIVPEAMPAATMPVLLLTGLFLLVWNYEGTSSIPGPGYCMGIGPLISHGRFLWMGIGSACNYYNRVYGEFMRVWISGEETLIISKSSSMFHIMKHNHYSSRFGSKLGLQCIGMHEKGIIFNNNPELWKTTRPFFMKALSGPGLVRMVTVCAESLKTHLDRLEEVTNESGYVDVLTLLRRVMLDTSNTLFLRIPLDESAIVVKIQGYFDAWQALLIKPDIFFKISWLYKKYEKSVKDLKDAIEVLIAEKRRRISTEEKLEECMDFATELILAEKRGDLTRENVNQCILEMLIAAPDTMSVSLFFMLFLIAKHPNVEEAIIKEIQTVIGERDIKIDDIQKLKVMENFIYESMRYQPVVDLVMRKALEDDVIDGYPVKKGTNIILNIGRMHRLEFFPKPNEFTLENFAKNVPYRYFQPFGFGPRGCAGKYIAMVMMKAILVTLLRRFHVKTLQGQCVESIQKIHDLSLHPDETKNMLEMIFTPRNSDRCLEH
UniProt P35869, sequence (P35869 whole entry, looked up): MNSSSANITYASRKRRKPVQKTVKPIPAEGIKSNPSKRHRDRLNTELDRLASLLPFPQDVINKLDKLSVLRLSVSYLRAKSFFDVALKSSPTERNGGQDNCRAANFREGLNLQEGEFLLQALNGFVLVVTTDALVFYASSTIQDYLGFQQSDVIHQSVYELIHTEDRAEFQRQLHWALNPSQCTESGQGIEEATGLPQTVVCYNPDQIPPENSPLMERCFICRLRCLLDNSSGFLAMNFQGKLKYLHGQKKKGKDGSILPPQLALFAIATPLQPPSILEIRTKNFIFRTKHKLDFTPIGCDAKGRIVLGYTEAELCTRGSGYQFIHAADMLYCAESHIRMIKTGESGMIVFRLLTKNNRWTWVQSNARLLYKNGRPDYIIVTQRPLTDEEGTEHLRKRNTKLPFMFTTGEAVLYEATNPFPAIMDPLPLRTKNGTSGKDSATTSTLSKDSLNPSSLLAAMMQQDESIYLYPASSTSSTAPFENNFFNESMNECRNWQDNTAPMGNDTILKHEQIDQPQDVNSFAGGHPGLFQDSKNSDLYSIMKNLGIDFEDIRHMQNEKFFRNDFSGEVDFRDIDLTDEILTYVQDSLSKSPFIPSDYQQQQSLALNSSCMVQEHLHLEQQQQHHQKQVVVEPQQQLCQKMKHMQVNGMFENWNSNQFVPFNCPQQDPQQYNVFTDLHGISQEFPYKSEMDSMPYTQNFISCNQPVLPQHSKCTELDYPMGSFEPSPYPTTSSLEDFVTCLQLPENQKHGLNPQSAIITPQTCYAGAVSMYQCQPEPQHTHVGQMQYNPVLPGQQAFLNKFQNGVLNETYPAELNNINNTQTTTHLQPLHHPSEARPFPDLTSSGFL
UniProt P11473, sequence (P11473 whole entry, looked up): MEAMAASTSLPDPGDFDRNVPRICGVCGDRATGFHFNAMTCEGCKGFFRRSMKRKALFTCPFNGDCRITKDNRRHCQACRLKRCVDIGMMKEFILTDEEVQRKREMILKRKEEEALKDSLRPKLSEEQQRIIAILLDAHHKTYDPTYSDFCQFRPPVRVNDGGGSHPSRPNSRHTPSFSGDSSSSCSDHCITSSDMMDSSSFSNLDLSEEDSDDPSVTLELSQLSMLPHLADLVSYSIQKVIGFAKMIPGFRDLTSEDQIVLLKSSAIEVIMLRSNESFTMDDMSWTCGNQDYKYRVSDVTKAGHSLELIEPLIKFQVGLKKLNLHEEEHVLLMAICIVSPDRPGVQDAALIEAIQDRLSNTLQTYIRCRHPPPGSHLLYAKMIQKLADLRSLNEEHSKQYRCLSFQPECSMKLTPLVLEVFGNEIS

## O=C(NCN1CCOCC1)c1cnccn1
[1]
  Potency: inconclusive [rising, partial curve, poor fit]
[2]
  Potency: inactive
[3]
  Potency: inactive
[4]
  Potency: inactive
[5]
  Potency: inactive
[6]
  Potency: inconclusive [falling, full curve]

## Cc1ncc(COP(=O)(O)O)c(CN)c1O
[7]
  Potency: inactive
[8]
  Potency: inconclusive [rising, partial curve, poor fit]
[9]
  viability change, negative = cytotoxic: inconclusive: 32%
[3]
  Potency: inactive
[5]
  Potency: inconclusive [cytotoxic, single point]

## NC(=O)C1c2ccccc2CCc2ccccc21
[10]
  Potency: inconclusive [cytotoxic, single point]
[8]
  Potency: inconclusive [cytotoxic, partial curve, poor fit]
[11]
  Potency: inactive
[12]
  activity change, negative = inhibition: inconclusive: -6.65%
[3]
  Potency: inactive
[13]
  Potency: inactive

## CO/N=C(\C(=O)N[C@@H]1C(=O)N2C(C(=O)O)=C(CSc3nnnn3C)CS[C@H]12)c1csc(N)n1
[7]
  Potency: inactive
[5]
  Potency: inactive
[14]
  Potency: inactive

## CS(=O)(=O)NC(=O)CCC/C=C\C[C@H]1C(=O)C[C@@H](O)[C@@H]1/C=C/[C@H](O)COc1ccccc1
[7]
  activity change, negative = inhibition: inconclusive: 28.3%
[15]
  Potency: inconclusive [rising, full curve, poor fit]
[16]
  Potency: inconclusive [rising, partial curve]

## CCCC(CCC)C(N)=O
[7]
  Potency: inactive
[16]
  Potency: inconclusive [cytotoxic, single point]
[14]
  Potency: inactive

## CC(=O)O[C@]1(C(C)=O)CC[C@H]2[C@@H]3CCC4=CC(=O)CC[C@]4(C)[C@@]3(F)[C@@H](O)C[C@@]21C
[7]
  Potency: inconclusive [activator, full curve]
[10]
  Potency: inactive
[8]
  Potency: inconclusive [cytotoxic]
[3]
  Potency: inconclusive [rising, partial curve]
[17]
  Potency: inconclusive [activator, full curve, poor fit]
[18]
  Potency: inconclusive [activator, partial curve]
[19]
  Potency: active: 2.66 µM
[15]
  Potency: inconclusive [rising, full curve]

## CNC(=O)C[C@@H](N)C(=O)N[C@@H](C(=O)N[C@@H]1C(=O)N2[C@@H]1SC(C)(C)[C@@H]2C(=O)O)c1ccc(O)cc1
[7]
  activity change, negative = inhibition: inconclusive: 2.66%
[8]
  Potency: inconclusive [rising, partial curve, poor fit]
[19]
  Potency: inactive
[15]
  Potency: inactive

## CN=C(NC)NCc1ccccc1
[7]
  Potency: inactive
[17]
  Potency: inactive
[18]
  Potency: inactive
[19]
  activation: inconclusive: 16.5% [phenotype inactive]
[20]
  Potency: inactive

## CNCC(O)c1ccc(OC(=O)C(C)(C)C)c(OC(=O)C(C)(C)C)c1 (stereo not given)
[10]
  Potency: active: 12.7 µM
[8]
  Potency: inconclusive [cytotoxic, single point]
[21]
  Potency: inconclusive [cytotoxic, single point]
[22]
  Potency: inconclusive [inhibitor, partial curve]
[16]
  Potency: inconclusive [rising, full curve]
[23]
  Potency: inactive

## C[N@+]12CCCC[C@@H]1CCC(=C(c1cccs1)c1cccs1)C2
[7]
  activity change, negative = inhibition: inconclusive: 9.91% [activator]
[12]
  Potency: inactive
[9]
  Potency: active: 26.6 µM

## Cn1c(=O)c2c(ncn2CCOC(=O)C(C)(C)Oc2ccc(Cl)cc2)n(C)c1=O
[10]
  Potency: inconclusive [cytotoxic]
[21]
  Potency: inconclusive [cytotoxic, single point]
[3]
  Potency: inconclusive [rising, full curve, poor fit]
[15]
  Potency: active: 29.8 µM

## C[N+](C)(CCCCCC[N+](C)(C)C1c2ccccc2-c2ccccc21)C1c2ccccc2-c2ccccc21
[10]
  Potency: inconclusive [cytotoxic]
[8]
  Potency: inconclusive [cytotoxic, single point]
[21]
  Potency: inconclusive [cytotoxic, single point]
[11]
  Potency: inactive
[3]
  Potency: inactive
[17]
  Potency: inactive
[5]
  Potency: inconclusive [cytotoxic, single point]
[13]
  Potency: inactive
[14]
  Potency: inactive
